Some of the results follow. Many values rest on one well or one pass, so single values are uncertain.
System: WM451Lu
Assay: cell count relative to DMSO control; melanoma cells; higher = more viable cells
Conditions: library dose: low library concentration; 72 h
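Further: cell number obtained by counting DAPI-stained nuclei in high-throughput microscope images with image analysis software, screen run in 1,536-well plates.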

SMILES | cell count [%]
O=C(O)[C@@H]1[O][Sb](=[O])([O][Sb]2(=[O])[O][C@H]([C@H](O)CO)[C@H](O)[C@H](C(=O)O)[O]2)[O][C@H]([C@H](O)CO)[C@@H]1O (some centres undefined) [stibogluconate] + CCCS(=O)(=O)Nc1ccc(F)c(C(=O)c2c[nH]c3ncc(Cl)cc23)c1F [PLX4720] (first compound 2 µM, partner dose 0.08 µM) | 101
O=C(Nc1cc(C(F)(F)F)cc(C(F)(F)F)c1)c1cc(Cl)ccc1O + COc1ccc(C2=N[C@@H](c3ccc(Cl)cc3)[C@@H](c3ccc(Cl)cc3)N2C(=O)N2CCNC(=O)C2)c(OC(C)C)c1 [Nutlin-3] (first compound 0.016 µM, partner dose 0.1 µM) | 98.8
O=C(O)[C@@H]1[O][Sb](=[O])([O][Sb]2(=[O])[O][C@H]([C@H](O)CO)[C@H](O)[C@H](C(=O)O)[O]2)[O][C@H]([C@H](O)CO)[C@@H]1O (some centres undefined) [stibogluconate] + CCN(CC)CCCCNc1ncc2cc(-c3cc(OC)cc(OC)c3)c(NC(=O)NC(C)(C)C)nc2n1 [PD173074] (first compound 2 µM, partner dose 0.1 µM) | 111
Cc1cc(N2CCOCC2)cc2[nH]c(-c3c(NC[C@@H](O)c4cccc(Cl)c4)cc[nH]c3=O)nc12 + CC(C)CCN1c2nc(Nc3cc(F)c(O)c(F)c3)ncc2N(C)C(=O)C1C [BID1870] (first compound 0.2 µM, partner dose 0.2 µM) | 91.8
O=C(Nc1cc(C(F)(F)F)cc(C(F)(F)F)c1)c1cc(Cl)ccc1O + CC(C)(C)c1cnc(CSc2cnc(NC(=O)C3CCNCC3)s2)o1 [SNS-032] (first compound 0.016 µM, partner dose 0.01 µM) | 106
O=C(O)[C@@H]1[O][Sb](=[O])([O][Sb]2(=[O])[O][C@H]([C@H](O)CO)[C@H](O)[C@H](C(=O)O)[O]2)[O][C@H]([C@H](O)CO)[C@@H]1O (some centres undefined) [stibogluconate] + Cn1c(Nc2ccc(C(F)(F)F)cc2)nc2cc(Oc3ccnc(-c4ncc(C(F)(F)F)[nH]4)c3)ccc21 [CHIR265] (first compound 2 µM, partner dose 0.08 µM) | 88.2
O=C(Nc1cc(C(F)(F)F)cc(C(F)(F)F)c1)c1cc(Cl)ccc1O + COc1cc2ncnc(Nc3ccc(Oc4ccccc4)cc3)c2cc1OC [SrcI1] (first compound 0.016 µM, partner dose 2 µM) | 96.8
O=C(Nc1ccccc1)c1cc([N+](=O)[O-])ccc1Cl + N#Cc1c(O)c2c(-c3ccc(-c4ccccc4O)cc3)csc2[nH]c1=O [A769662] (first compound 2 µM, partner dose 2 µM) | 103
Cc1cc(N2CCOCC2)cc2[nH]c(-c3c(NC[C@@H](O)c4cccc(Cl)c4)cc[nH]c3=O)nc12 + COc1ccc2c(c1)CCC1C2CCC2(C)C(NCCCCCCN3C(=O)C=CC3=O)CCC12 [U73122] (first compound 0.2 µM, partner dose 0.4 µM) | 96.1
O=C(O)c1ccc2c(c1)nc(Nc1cccc(Cl)c1)c1ccncc12 + c1cc(-c2cnn3cc(-c4ccc(OCCN5CCCCC5)cc4)cnc23)ccn1 [Dorsomorphin] (first compound 0.4 µM, partner dose 0.4 µM) | 89.7
O=C(Nc1cc(C(F)(F)F)cc(C(F)(F)F)c1)c1cc(Cl)ccc1O + CCN(CC)CCNC(=O)c1c(C)[nH]c(/C=C2\C(=O)Nc3ccc(F)cc32)c1C [sunitinib] (first compound 0.016 µM, partner dose 0.4 µM) | 91.3
Cc1cc(N2CCOCC2)cc2[nH]c(-c3c(NC[C@@H](O)c4cccc(Cl)c4)cc[nH]c3=O)nc12 + COc1cc2ncnc(Nc3ccc(Oc4ccccc4)cc3)c2cc1OC [SrcI1] (first compound 0.2 µM, partner dose 2 µM) | 122
O=C(Nc1ccccc1)c1cc([N+](=O)[O-])ccc1Cl + COc1cc(N2CCC(N3CCN(C)CC3)CC2)ccc1Nc1ncc(Cl)c(Nc2ccccc2S(=O)(=O)C(C)C)n1 [NVP-TAE684] (first compound 2 µM, partner dose 0.08 µM) | 99.2
O=C(Nc1cc(C(F)(F)F)cc(C(F)(F)F)c1)c1cc(Cl)ccc1O + NC(=O)Nc1cc(-c2cccc(F)c2)sc1C(=O)N[C@H]1CCCNC1 [AZD7762] (first compound 0.016 µM, partner dose 0.02 µM) | 87.4
